This passage reports self-cleavage results from the RNAGym collection of RNA variant scans (doi:10.1093/nar/gkz1192).

The chains are these.
B1: CPEB3 Ribozyme (parent)
chain: UAACAGGGGGCCACAGCAGAAGCGUUCACGUCGCAGCCCCUGUCAGAUUCUGGUGAAUCUGCGAAUUCUGCUGUAUAUCUC

The source gives no read counts; variants with many changes may rest on few reads.

In this series the parent is B1. The series can be described thus: self-cleavage, relative activity (ratio to wild type); higher = more cleavage; in vitro, sequencing. The method in brief: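 After error-prone PCR and barcoding, CPEB3 ribozyme mutant libraries were transcribed with T7 RNA polymerase at 37°C for 5 hours, then given 15 min with DNase I before an EDTA stop, and they cleaved during both steps. Reverse transcription with template switching preceded Illumina sequencing. Relative activity divides a variant's cleaved/total read fraction by the unmutated ribozyme's. At least 5 reads were required per variant, and three batches were averaged.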
Regarding U1C A28G G42A U48A, the self-cleavage was determined as 0.08.

With U1C A20G A75G U76A, the self-cleavage was 0.36.

U1C A21G U25A U78C: the self-cleavage is 0.06.

For the variant U1C A20G A35G U48A A65G, the self-cleavage stood at 0.1.

Turning to U1C A15G U60C, the self-cleavage was 0.15.

As for U1C A28G A64G U67C, the self-cleavage turned out to be 0.06.

U1C A20U A64G: the self-cleavage is 0.25.

In the case of U1C A15U U51A U54C U80C, the self-cleavage is 0.67.

On to U1C A21U U49C U51A A56U A64U U80C, for which the self-cleavage was determined as 0.08.

As to U1C A21G G30A U54G A64U U74A, the self-cleavage was determined as 0.16.

Regarding U1C A20G A35G, the self-cleavage is 0.99.

For the variant U1C A21G U31A A35G U49C, the self-cleavage came out at 0.44.

U1C A15G U78C: the self-cleavage turned out to be 0.8.

As to U1C A18U G33A C40U U72A, the self-cleavage was determined as 0.05.

With U1C A20G U41C A45U U48C G61A A64U, the self-cleavage is 0.05.

Take U1C A21G U26C G52U: the self-cleavage stood at 0.1.

For U1C A28G U41C A47G A64G U80C, the self-cleavage was 0.03.

Consider U1C A15G U26C C68U A77G, for which the self-cleavage amounted to 0.53.

Take U1C A18G A35G U72C: the self-cleavage was determined as 0.14.

In the case of U1C A28G A45U, the self-cleavage was found to be 0.4.

With U1C A20U G61C U69C U72G U74A, the self-cleavage was found to be 0.08.

Turning to U1C A20U U25A U60C, the self-cleavage is 0.14.

For the variant U1C A21G A56G U58A G61A U72C, the self-cleavage worked out at 0.1.

Regarding U1C A28G A65G, the self-cleavage was 0.42.

As to U1C A15G A18G A35G U58A, the self-cleavage is 0.75.

Take U1C A28G A56U U67A U69C: the self-cleavage amounted to 0.06.

Turning to U1C A21G U66A U78C, the self-cleavage amounted to 0.22.

Take U1C A21G C40U U69C: the self-cleavage stood at 0.07.

As to U1C A28U A77G, the self-cleavage was 0.92.

Consider U1C A28U A77U, for which the self-cleavage is 0.64.

For U1C A18G A47G, the self-cleavage worked out at 0.19.

Consider U1C A15U A21G C23U U60G U78C, for which the self-cleavage is 0.06.

With U1C A15G A18G C32U A35U U80A, the self-cleavage was found to be 0.8.

As for U1C A15U A20U U25C A35G U41C A45U, the self-cleavage was determined as 0.25.

Consider U1C A15U U41A U60A A64G U74G U76A, for which the self-cleavage was 0.21.

As to U1C A21G U67C, the self-cleavage came out at 0.22.

As to U1C A18U C29A U51C U69A U74C U78C, the self-cleavage stood at 0.3.

Regarding U1C A15G A21U C34U U58A A64U, the self-cleavage is 0.04.

For the variant U1C A21G U72C, the self-cleavage is 0.69.

On to U1C A21G A47U U51A U72A, for which the self-cleavage worked out at 0.12.

As to U1C A18U U26C U48C U51A, the self-cleavage came out at 0.29.

For U1C A20C C39U U41A U69C, the self-cleavage was found to be 0.15.

With U1C A15G A20U A56G U58C G73A U80A, the self-cleavage was 0.24.

With U1C A15U A56U G73C, the self-cleavage turned out to be 0.4.

For U1C A18G U67C A75U, the self-cleavage is 0.21.

For the variant U1C A18U A28G U31C U49C A56U, the self-cleavage came to 0.25.

As to U1C A20G G24C C40U, the self-cleavage is 0.06.

With U1C A18C U69C C81U, the self-cleavage was 0.18.

Regarding U1C A20G G36C U51C A65G U78C, the self-cleavage came out at 0.12.

Take U1C A18G U76A: the self-cleavage amounted to 0.72.

For U1C A15G U25C U51C, the self-cleavage was 0.1.

For U1C A18U U51G U74C, the self-cleavage was 0.19.

As for U1C A18G A64U U67A, the self-cleavage turned out to be 0.18.

On to U1C A21G A47G C71A U74C, for which the self-cleavage was 0.13.

In the case of U1C A15G A57C U67C, the self-cleavage was 0.12.

For U1C A15U U41A, the self-cleavage came out at 0.36.

U1C A21U A65G: the self-cleavage came to 0.27.

With U1C A18G G53C U69A A77C, the self-cleavage worked out at 0.27.

With U1C A21G G30A A35G U41A A77U, the self-cleavage stood at 0.06.

For the variant U1C A18G A35G A56U A64U, the self-cleavage is 0.18.

With U1C A18U U26C U60C U67A U72C A75U, the self-cleavage turned out to be 0.06.

Turning to U1C A18U U48C U54A, the self-cleavage stood at 0.32.

Consider U1C A20G A45G U54A A64G U72C, for which the self-cleavage turned out to be 0.13.

U1C A20U U51A: the self-cleavage turned out to be 0.11.

Consider U1C A15C A20G U51A, for which the self-cleavage was 0.35.

On to U1C A20G A21G U31C C39U U78C, for which the self-cleavage stood at 0.04.

Regarding U1C A15U A18G A20G A64G, the self-cleavage turned out to be 0.06.

As for U1C A15G G19U C59A, the self-cleavage stood at 0.11.

Regarding U1C A18G U41A U49C C79A, the self-cleavage was found to be 0.34.

With U1C A20G U31A A47G, the self-cleavage is 0.31.

For the variant U1C A21U A28U A35U A45G U76C, the self-cleavage is 0.11.

Turning to U1C A21G A35G U72C U78C, the self-cleavage turned out to be 1.1.

As to U1C A20G A28U C34A G55A A57G U69C, the self-cleavage is 0.19.

In the case of U1C A15G U54C, the self-cleavage was found to be 0.41.

Turning to U1C A18G U25A A28U C32U G61A, the self-cleavage came to 0.07.

Regarding U1C A20G U80C, the self-cleavage worked out at 0.94.

As to U1C A20G U80G, the self-cleavage was determined as 0.98.

For U1C A15G C40U U54C U76A, the self-cleavage worked out at 0.33.

For U1C A20G U31C C32A C38G C59U, the self-cleavage was 0.11.

On to U1C A20U A57G U60C, for which the self-cleavage stood at 0.08.

For the variant U1C A15G G22C A57G U69A, the self-cleavage stood at 0.12.

For the variant U1C A15G A56U U76A, the self-cleavage was 0.42.

For the variant U1C A28G C40U A45U U66C U80C, the self-cleavage was found to be 0.09.

Turning to U1C A18G U26C A56U, the self-cleavage stood at 0.05.
